Reference: PubChem BioAssay AID504832 (National Center for Advancing Translational Sciences (NCATS), 2011)
The whole screen tested about 310,000 compounds, of which about 18,000 (5.8%) were called active. Inconclusive results, whose numbers are uncertain, are shown with a selection of clear calls. The call rests on the fitted dose curve; in most records, active means well fitted inhibition curve with a large enough effect; inconclusive means small, poorly fitted or top-dose-only effect, or another doubt; inactive means no such curve, though single readings can be large or run the other way. No potency is given beside an inconclusive call; the fits are too rough.

Test: Primary qHTS for delayed death inhibitors of the malarial parasite plastid, 48 hour incubation
Settings: P. falciparum luciferase growth in erythrocytes; series mostly up to 28.7 µM
In short: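 Luciferase-expressing P. falciparum in infected erythrocytes (2% hematocrit, 0.1% parasitemia final) in RPMI 1640/0.5% Albumax were exposed to compound for 48 hours at 37 C, 5% CO2; growth read as luminescence.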
Potency means the concentration at half of the fitted maximal effect; tags describe the fitted curve by direction and shape.

Row | SMILES | Potency
1 | COc1cccc(NC(=S)N/N=C2\CC(C)(C)Oc3ccc(O)cc32)c1 | inconclusive [inhibitor, single point]
2 | CCC1=C(OC(=O)N(CC)CC)N2C(=O)OC(=NCC(=O)OC)[C@]2(C)[C@H]2C1=CC[C@H]1C(=O)N(C)C(=O)[C@H]12 | inactive
3 | Cc1c(NC(=O)/C=C/c2ccc(S(=O)(=O)N3CCOCC3)cc2)c(=O)n(-c2ccccc2)n1C | inactive
4 | COC1CC(O[C@H]2/C(C)=C/CC3CC(C[C@]4(CCC(C)C(C5CCCCC5)O4)O3)OC(=O)[C@H]3C=C(C)/C(=N/O)C4OC/C(=C\C=C\[C@@H]2C)[C@@]43O)OC(C)C1O (stereo partly specified) | inconclusive [inhibitor, single point]
5 | CN(C)S(=O)(=O)c1ccc(C(=O)NCC(C)(C)CN=C2NS(=O)(=O)c3ccccc32)cc1 | inconclusive [inhibitor, partial curve, poor fit]
6 | O=C(Nc1nnc(-c2ccco2)s1)C1CCN(S(=O)(=O)c2ccc(Cl)cc2)CC1 | inconclusive [inhibitor, partial curve, poor fit]
7 | c1ccc(CCn2nnnc2C(c2cccnc2)N2CCN(c3ccccc3)CC2)cc1 (stereo unspecified) | inconclusive [inhibitor, partial curve, poor fit]
8 | CCCOc1ccc(N2C(=O)CC(N(CCc3ccc(OC)cc3)C(=O)c3ccccc3)C2=O)cc1 (stereo unspecified) | inactive
9 | COc1cc(O)c(C(=O)c2ccccc2)cc1S(=O)(=O)O | inconclusive [inhibitor, single point]
10 | CCOC(=O)c1ccc(NC(=O)CCc2nnc3ccc(N4CCN(C)CC4)nn23)cc1 | inconclusive [inhibitor, single point]
11 | CCCN1CCC(NC(=O)Cc2cccc(C)c2)CC1 | inactive
12 | COc1ccc(-c2cc(C)no2)cc1S(=O)(=O)NCCCN(C)Cc1ccccc1 | inconclusive [inhibitor, single point]
13 | CCCn1c(NC(=O)c2cccc(S(=O)(=O)N3CCCC3)c2)nc2ccccc21 | inconclusive [inhibitor, full curve, poor fit]
14 | O=C(c1cccs1)N(Cc1nc2sc3c(c2c(=O)[nH]1)CCCC3)C1CCCC1 | inconclusive [inhibitor, single point]
15 | CCC(C)/C=C(C)/C=C/C1=CC2=C(Cl)C(=O)C(C)(OC(C)=O)C(=O)C2=CO1 (stereo unspecified) | inconclusive [inhibitor, partial curve]
16 | COc1ccc(CCNc2c(N)n(Cc3ccccc3)c(=O)[nH]c2=O)cc1OC | inconclusive [inhibitor, partial curve]
